About 2,200 (0.71%) of roughly 310,000 compounds showed an effect of 50% or more. Effects have a minus sign here. The list shows a part of the results.

For the test, the target named is human ether-à-go-go-related gene (hERG) potassium channel (human, UniProt Q12809). Description: primary screen, population patch clamp on CHO cells stably expressing hERG.
Chain of human ether-à-go-go-related gene (hERG) potassium channel (Q12809 whole entry, looked up): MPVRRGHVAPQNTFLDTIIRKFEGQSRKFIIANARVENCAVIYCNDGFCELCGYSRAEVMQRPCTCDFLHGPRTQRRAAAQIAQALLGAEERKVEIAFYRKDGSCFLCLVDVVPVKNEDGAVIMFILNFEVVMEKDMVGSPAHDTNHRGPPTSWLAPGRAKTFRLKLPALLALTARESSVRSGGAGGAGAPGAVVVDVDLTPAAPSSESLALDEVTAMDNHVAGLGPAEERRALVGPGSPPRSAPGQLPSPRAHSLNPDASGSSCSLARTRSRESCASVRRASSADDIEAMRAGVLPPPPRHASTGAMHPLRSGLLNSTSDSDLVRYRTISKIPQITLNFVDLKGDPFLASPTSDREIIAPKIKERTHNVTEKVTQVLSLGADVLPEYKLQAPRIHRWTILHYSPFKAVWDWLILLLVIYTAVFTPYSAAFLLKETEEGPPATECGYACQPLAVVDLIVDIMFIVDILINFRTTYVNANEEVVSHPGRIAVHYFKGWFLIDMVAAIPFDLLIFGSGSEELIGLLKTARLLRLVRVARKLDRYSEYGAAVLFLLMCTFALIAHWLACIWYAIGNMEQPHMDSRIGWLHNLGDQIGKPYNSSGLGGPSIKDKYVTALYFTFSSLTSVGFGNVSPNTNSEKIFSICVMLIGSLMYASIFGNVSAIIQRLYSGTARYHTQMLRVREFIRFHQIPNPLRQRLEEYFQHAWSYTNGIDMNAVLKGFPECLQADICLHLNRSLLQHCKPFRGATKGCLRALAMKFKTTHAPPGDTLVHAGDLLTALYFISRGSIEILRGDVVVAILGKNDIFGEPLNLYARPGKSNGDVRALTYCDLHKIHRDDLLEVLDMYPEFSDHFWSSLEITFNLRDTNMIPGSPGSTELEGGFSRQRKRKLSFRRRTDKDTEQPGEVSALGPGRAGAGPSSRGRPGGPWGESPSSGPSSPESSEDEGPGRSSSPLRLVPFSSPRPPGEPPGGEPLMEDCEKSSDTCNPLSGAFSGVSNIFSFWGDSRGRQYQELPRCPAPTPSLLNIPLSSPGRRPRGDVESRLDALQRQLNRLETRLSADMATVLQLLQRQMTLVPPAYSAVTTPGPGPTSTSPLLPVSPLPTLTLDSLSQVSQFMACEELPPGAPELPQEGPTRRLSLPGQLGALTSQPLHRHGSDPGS
In the case of `Cn1ccnc1Sc1ccc(C(N)=O)cc1[N+](=O)[O-]`, the “hERG current change (%, negative = inhibition) at 1uM” value was 13.1%.

`COCCCNS(=O)(=O)c1cc2c3c(c1)C(C)C(=O)N3CCC2` (stereo not shown): the “hERG current change (%, negative = inhibition) at 1uM” value is 21.7%.

In the case of `CN(C)CCN(C(=O)c1ccc(S(=O)(=O)N(C)c2ccccc2)cc1)c1nc2cc3c(cc2s1)OCCO3.Cl`, the “hERG current change (%, negative = inhibition) at 1uM” value is listed as 11.4%.

Turning to `O=C(COc1coc(CN2CCCc3ccccc32)cc1=O)Nc1ccccc1`, the “hERG current change (%, negative = inhibition) at 1uM” value is reported as -6.51%.

As for `Cc1ccc(C(=O)Nn2cnc3ccccc3c2=O)cc1C`, the “hERG current change (%, negative = inhibition) at 1uM” value was 4.05%.

For `O=C(NC(=S)NC1CCSC1=O)c1ccccc1F` (stereo not shown), the “hERG current change (%, negative = inhibition) at 1uM” value amounted to 12.6%.

As to `Cn1c(CCN2CCOCC2)nc2cc(NC(=O)COc3ccc([N+](=O)[O-])cc3)ccc21`, the “hERG current change (%, negative = inhibition) at 1uM” value stood at 17.1%.

For the molecule `CC(OC(=O)c1cccc(-n2cnnn2)c1)C(=O)c1ccccc1` (stereo not shown), the “hERG current change (%, negative = inhibition) at 1uM” value was -3.7%.

Regarding `O=C(NC(=S)Nc1ccc(S(=O)(=O)Nc2nccs2)cc1)c1cccc(F)c1`, the “hERG current change (%, negative = inhibition) at 1uM” value was found to be 4.03%.

Take `Cc1cc(Br)cc(C)c1OCC(=O)NNC(=O)CCC(=O)NCc1ccccc1`: the “hERG current change (%, negative = inhibition) at 1uM” value is on record as 17.5%.

Turning to `CCN1CCSc2ccc(C(=O)NCc3cccc(Br)c3)cc21`, the “hERG current change (%, negative = inhibition) at 1uM” value was 10.6%.

With `COc1ccc(C[C@@H]2c3cc(O)c(OC)cc3CCN2C)cc1O.[O-][Cl+3]([O-])([O-])O`, the “hERG current change (%, negative = inhibition) at 1uM” value came out at 9.5%.

Take `COc1ccc(-n2cnnc2SCC(=O)Nc2cc(C(C)(C)C)nn2-c2ccccc2)cc1`: the “hERG current change (%, negative = inhibition) at 1uM” value is listed as -1.54%.

In the case of `CS(=O)(=O)N1CCN(c2ccccc2NC(=O)c2cc(Br)ccc2Cl)CC1`, the “hERG current change (%, negative = inhibition) at 1uM” value was -1.64%.

In the case of `Cc1ccc(CCN2CC(C(=O)N3CCN(c4ccc(F)cc4)CC3)CC2=O)cc1` (stereo not shown), the “hERG current change (%, negative = inhibition) at 1uM” value is given as -42%.

Regarding `CCOC(=O)C(C)N(c1ccccc1Cl)S(C)(=O)=O` (stereo not shown), the “hERG current change (%, negative = inhibition) at 1uM” value was found to be 1.57%.

On to `CCOC(=O)c1ccc(Oc2ccc(C(F)(F)F)cn2)cc1`, for which the “hERG current change (%, negative = inhibition) at 1uM” value was 5.32%.

As for `O=C(Nc1nnc(Cc2ccccc2)s1)Nc1ccccc1F`, the “hERG current change (%, negative = inhibition) at 1uM” value is recorded as 9.12%.

Regarding `COC(=O)c1ccc(COc2nc(C)cc(C)c2C#N)o1`, the “hERG current change (%, negative = inhibition) at 1uM” value is given as -6.61%.

Consider `Cc1cnc(C(=O)OCC(=O)c2ccc(-c3ccccc3)cc2)cn1`, for which the “hERG current change (%, negative = inhibition) at 1uM” value turned out to be 7.97%.

On to `COc1ccc2nc3c(c(-c4ccccc4)c2c1)CCC3`, for which the “hERG current change (%, negative = inhibition) at 1uM” value was determined as 9.81%.

In the case of `Cc1ccc(NC(=S)NCc2cccnc2)cc1`, the “hERG current change (%, negative = inhibition) at 1uM” value is given as -2.58%.

On to `CCOP(=O)(Cc1ccccc1)OCC`, for which the “hERG current change (%, negative = inhibition) at 1uM” value turned out to be 10.5%.

Turning to `COc1cccc(CNC(=O)c2ccccc2N)c1`, the “hERG current change (%, negative = inhibition) at 1uM” value was -4.47%.

`Cc1ccc(S(=O)(=O)N2CCN(C(=O)C(C)Cn3cncn3)CC2)cc1` (stereo not shown): the “hERG current change (%, negative = inhibition) at 1uM” value worked out at 7.75%.

Take `COc1ccc(-c2nnc3sc(CCN4C(=O)c5ccccc5C4=O)nn23)cc1`: the “hERG current change (%, negative = inhibition) at 1uM” value amounted to 3.55%.

In the case of `CN(C)c1ccc(/C=N/NC(=O)C(=O)N2CCCCCC2)cc1`, the “hERG current change (%, negative = inhibition) at 1uM” value is 19.4%.

With `O=C(COC(=O)c1cc(Br)ccc1Cl)NC1CCCC1`, the “hERG current change (%, negative = inhibition) at 1uM” value is 10.2%.

On to `CC(C)NC(=O)COc1ccc(OCc2ccccc2)cc1`, for which the “hERG current change (%, negative = inhibition) at 1uM” value was 13.9%.

Regarding `CC1CCN(C(=O)COC(=O)COc2ccccc2C#N)CC1`, the “hERG current change (%, negative = inhibition) at 1uM” value is on record as 7.69%.

As for `COc1cccc(NC(=O)c2ccc3c(c2)N(C)CCS3)c1`, the “hERG current change (%, negative = inhibition) at 1uM” value stood at 1.72%.

Regarding `CN(C[C@H](Cc1ccccc1)N(C[C@H](Cc1ccccc1)N(CC1(c2ccccc2)CC1)N=O)N=O)N=O.[Na+]`, the “hERG current change (%, negative = inhibition) at 1uM” value came out at 13.6%.

Consider `Cc1cc(NC(=O)Nc2cccc([N+](=O)[O-])c2)no1`, for which the “hERG current change (%, negative = inhibition) at 1uM” value was 3.73%.

In the case of `Cc1ccc(-n2c(CNCc3ccc(F)cc3)nc3ccccc3c2=O)cc1`, the “hERG current change (%, negative = inhibition) at 1uM” value is listed as 7.32%.

Turning to `O=C(O)C(=O)O.O=C(c1cccc(F)c1)N1CCN(Cc2cccc(Br)c2)CC1`, the “hERG current change (%, negative = inhibition) at 1uM” value was -7.13%.

Take `COc1ccc(CNC(=O)c2c(-c3c(F)cccc3Cl)noc2C)cc1`: the “hERG current change (%, negative = inhibition) at 1uM” value turned out to be 16.4%.

For `COC(=O)c1ccc(NC(=O)CN2CCOCC2)cc1`, the “hERG current change (%, negative = inhibition) at 1uM” value was 19.1%.

Regarding `Cc1cc(C)c(S(=O)(=O)c2ccccc2F)c(=O)[nH]1`, the “hERG current change (%, negative = inhibition) at 1uM” value is 22.2%.

As to `CSc1ncccc1C(=O)OCc1ccccc1Cl`, the “hERG current change (%, negative = inhibition) at 1uM” value was 17.5%.

For `COCCOC(=O)c1c(C)oc2cc(Br)c(OCC(N)=O)cc12`, the “hERG current change (%, negative = inhibition) at 1uM” value is recorded as 12.6%.

As to `CCOc1ccc2nc(NC(=O)CSc3nc4c(c(=O)n(C)c(=O)n4C)n3C(C)C)sc2c1`, the “hERG current change (%, negative = inhibition) at 1uM” value turned out to be 2.42%.

In the case of `Cc1ccc(-c2csc3ncn(CC(=O)N4CCOCC4)c(=O)c23)cc1C`, the “hERG current change (%, negative = inhibition) at 1uM” value is recorded as 3.01%.

For `COC(=O)C1=C(C)N(C)C(=O)NC1c1cc(Cl)c(O)c(OC)c1` (stereo not shown), the “hERG current change (%, negative = inhibition) at 1uM” value was found to be 2.68%.

For `O=C(OCCCN1CCCC1)C1(c2ccccc2)CCCC1`, the “hERG current change (%, negative = inhibition) at 1uM” value stood at 0.859%.

As for `CCN(CC)C(=O)CSc1nc2ncccc2[nH]1`, the “hERG current change (%, negative = inhibition) at 1uM” value is -16.3%.

With `CCCS/C(N)=N/N=C/c1cc(C)ccc1O`, the “hERG current change (%, negative = inhibition) at 1uM” value is given as 14.3%.

In the case of `Cn1nnnc1Sc1ncnc2scc(-c3cccs3)c12`, the “hERG current change (%, negative = inhibition) at 1uM” value stood at 17.5%.

On to `NC(=O)c1ccc(OCC(F)(F)C(F)(F)C(F)(F)C(F)(F)C(F)(F)C(F)F)cc1`, for which the “hERG current change (%, negative = inhibition) at 1uM” value is on record as 11%.

As for `CC(=O)c1ccc(NC(=S)NCc2ccco2)cc1`, the “hERG current change (%, negative = inhibition) at 1uM” value is 14.7%.

Take `CC(=O)Nc1ccc(OCC(=O)NCc2ccccc2)cc1`: the “hERG current change (%, negative = inhibition) at 1uM” value is listed as 12.9%.

For the molecule `Cc1nc(N2CCOCC2)[nH]c(=O)c1C(O)C(Cl)(Cl)Cl` (stereo not shown), the “hERG current change (%, negative = inhibition) at 1uM” value is on record as 11.6%.

Turning to `CCOc1cc(N2CCOCC2)c(OCC)cc1NC(=O)CN1CCC(Cc2ccccc2)CC1`, the “hERG current change (%, negative = inhibition) at 1uM” value was 5.3%.

As to `O=C1C2C3CCC(C3)C2C(=O)N1c1ccc(OS(=O)(=O)c2ccccc2)cc1` (stereo not shown), the “hERG current change (%, negative = inhibition) at 1uM” value is 5.76%.

`Cc1ccc(-c2csc(N/N=C/c3ccco3)n2)cc1`: the “hERG current change (%, negative = inhibition) at 1uM” value was -2.36%.

With `CC(C)(C)c1csc(NC(=O)Cc2ccc(S(=O)(=O)N3CCOCC3)s2)n1`, the “hERG current change (%, negative = inhibition) at 1uM” value is given as 6.76%.

Regarding `COc1ccc(C(=O)NNC(=O)c2cccc(F)c2)cc1`, the “hERG current change (%, negative = inhibition) at 1uM” value came to 0.0778%.

For `O=S(=O)(NCc1cccnc1)c1ccc(Cl)nc1`, the “hERG current change (%, negative = inhibition) at 1uM” value is reported as 10.4%.

Consider `Cc1cc(=O)n2nc(N3CCC(C(=O)NCC(C)c4ccccc4)CC3)sc2n1` (stereo not shown), for which the “hERG current change (%, negative = inhibition) at 1uM” value is given as 11.7%.

Values taken from publication PMC4336329 (PLoS ONE, 2015).
